Reference: PubChem BioAssay AID686978 (National Center for Advancing Translational Sciences (NCATS), 2013)
The whole screen tested about 420,000 compounds, of which about 64,000 (15%) were called active. The inconclusive results got no clear call from the source; some entries with a clear call stand among them for comparison. The call rests on the fitted dose curve; in most records, active means well fitted inhibition curve with a large enough effect; inconclusive means small, poorly fitted or top-dose-only effect; inactive means flat fitted curve, though single readings scatter. No potency is given beside an inconclusive call; the fits are too rough.

Experiment: qHTS for Inhibitors of human tyrosyl-DNA phosphodiesterase 1 (TDP1): qHTS in cells in absence of CPT; further: nearly all actives have a fitted effect of over 55% in size
Conditions: DT40 Tdp1-/- hTDP1 cells, no CPT, ATP luminescence, 48 h; series mostly up to 46.2 µM
How it was run: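 Camptothecin absent (DMSO only). Human TDP1-complemented DT40 knockout cells, 400 cells/well, 37 °C for minimum 48 hr; ATP measured via CellTiter-Glo, 30 min dark incubation, luminescence.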
Potency means the concentration at half of the fitted maximal effect; tags describe the fitted curve by direction and shape.

SMILES	Potency
Cc1nc2ccc([N+](=O)[O-])cc2c(=O)n1Cc1ccc(Cl)cc1	inconclusive [inhibitor, single point]
Cn1c(CN2CCN(C(=O)c3ccccc3)CC2)nc2cc([N+](=O)[O-])ccc21	inconclusive [inhibitor, partial curve, poor fit]
COc1cccc(C(=O)/C=C2\Sc3ccccc3N2C)c1	inconclusive [inhibitor, single point]
O=C(CN1C(=O)NC2(CCCCCCC2)C1=O)NC1CCCc2ccccc21 (stereo unspecified)	inactive
O=C(N/N=C/c1ccco1)c1ccccc1OCc1ccc(Br)cc1	active: 23.1 µM
N#C/C(C(=O)Oc1ccccc1)=C1/Nc2ccccc2-c2ccccc21	inconclusive [inhibitor, single point]
COc1cc(Cl)c(C)cc1NC(=O)c1ccccc1-n1cnnn1	inconclusive [inhibitor, single point]
Cc1ccc(-n2ncc3c(NCCCn4ccnc4)ncnc32)c(C)c1	inconclusive [inhibitor, partial curve]
CCS(=O)(=O)c1cc([N+](=O)[O-])c(Sc2ccccc2NC(C)=O)s1	active: 5.17 µM
Cc1sc2nc(CSC(C)C(=O)N(C)CC(=O)Nc3ccccc3C(F)(F)F)[nH]c(=O)c2c1C (stereo unspecified)	inconclusive [inhibitor, single point]
Cc1ccc(SC/C(O)=C(\C#N)c2nc3ccccc3s2)cc1	inconclusive [inhibitor, single point]
CCOC(=O)c1c(-c2cccs2)csc1NC(=O)CN(CC)CC	inconclusive [inhibitor, partial curve]
Cc1cc(C)n(C(C)CC(=O)NCc2ccc(N(C)C)cc2)n1 (stereo unspecified)	inactive
COc1cc(/C=N/NC(=O)CCN2CCN(C)CC2)cc2c1OCO2	inactive
O=C(CN(CC1CCCO1)C(=O)CNS(=O)(=O)c1ccc(Cl)cc1)NC1CCCCC1 (stereo unspecified)	inactive
CC(=O)Oc1c(/C=C(\C#N)C(N)=O)[nH]c2ccccc12	inconclusive [inhibitor, single point]
COc1ccc(CNC(=O)C(C)N(Cc2ccco2)C(=O)c2snc(C(N)=O)c2N)cc1 (stereo unspecified)	inactive
Cc1c(C(=S)Nc2ccccc2)cnn1-c1ccc([N+](=O)[O-])cc1	inconclusive [inhibitor, single point]
COCCN1CCN(c2c(C)c(C)nc3cc(-c4cccc(OC)c4)nn23)CC1	inconclusive [inhibitor, full curve, poor fit]
CC1(C(=O)NCC2CC2)CCN1C(=O)C1(c2ccccc2)CC1 (stereo unspecified)	inactive
COc1ccccc1NS(=O)(=O)c1cccc(C(=O)N/N=C/c2c(CO)cnc(C)c2O)c1	inconclusive [inhibitor, single point]
O=C(NCC1CC1)C1(C(F)(F)F)CC(CCCO)CCCO1 (stereo unspecified)	inactive
O=C(CCN1C(=O)C2C3C=CC(C3)C2C1=O)N1CCN(c2ccccn2)CC1 (stereo unspecified)	inactive

SMILES	Potency
COc1cc(Cl)c(C)cc1NC(=O)Cn1ncc2c([nH]c3ccccc32)c1=O	inactive
Cc1ccc(NC(=O)CSc2nc(O)cc(=O)n2-c2ccc(C)cc2)cc1	inactive
O=C(CSc1nc2cc(Cl)ccc2s1)Nc1cccc(S(=O)(=O)N2CCOCC2)c1	active: 20.6 µM
COc1ccc(C(O)(CCN2CCOCC2)c2ccccc2)cc1 (stereo unspecified)	inactive
Nc1cccc(C(=O)O)c1	inactive
CC1Cc2cc(S(=O)(=O)NCc3ccccc3)ccc2N1C(=O)C1CC1 (stereo unspecified)	inconclusive [inhibitor, single point]
O=C(/C=C/c1cn(CC(O)CN2CCCCC2)c2ccccc12)c1cccs1 (stereo unspecified)	active: 16.4 µM
CCc1ccccc1S(=O)(=O)Cc1ccc(C(=O)N2CCN(c3ccccn3)CC2)o1	inconclusive [inhibitor, single point]
Cc1noc(C)c1NC(=O)N(C)C[C@H]1Oc2c(NC(=O)Nc3ccc(C(F)(F)F)cc3)cccc2C(=O)N([C@H](C)CO)C[C@@H]1C	inconclusive [inhibitor, single point]
CCOc1cc(-c2nn3cnnc3s2)cc(OCC)c1OCC	inconclusive [inhibitor, single point]
COc1cccc(-c2nc3nc(C)cc(C)n3c2NC2CCCCC2)c1	active: 20.6 µM
CC12CCC(=O)N1C(C(=O)NCCN1C(=O)S/C(=C\c3ccccc3F)C1=O)CS2 (stereo unspecified)	inconclusive [inhibitor, partial curve]
O=C(NCc1ccco1)C(=O)N1CCCC1	inactive
O=C(CN1C(=O)/C(=C\c2cccc(F)c2)Oc2ccccc21)N1CCN(c2ccccn2)CC1	inconclusive [inhibitor, partial curve]
COc1ccc(CNC(=O)C(C)n2ccc3cc(S(=O)(=O)N4CCCC4)ccc32)cc1OC (stereo unspecified)	active: 0.58 µM
CCn1c(SCC(=O)N2CCN(c3ccccc3F)CC2)nnc1-c1ccoc1C	inconclusive [inhibitor, single point]
Cc1ccc(S(=O)(=O)NCCC(=O)NC2CCC(C)CC2)cc1 (stereo unspecified)	inactive
O=C(c1ccncc1)N(c1ccc2oc3c(c2c1)CCCC3)S(=O)(=O)c1cccc([N+](=O)[O-])c1	inconclusive [inhibitor, single point]
COc1ccc(NC(=O)c2ccc(-c3ccc(F)cc3)o2)cc1OC	active: 16.4 µM
CCCCN(C(=O)c1ccc(-c2ccc(Cl)cc2)o1)c1c(N)n(CCCC)c(=O)[nH]c1=O	inconclusive [inhibitor, single point]
CCN(CC)C(=S)SCC(=O)Nc1ccc(S(N)(=O)=O)cc1	inconclusive [inhibitor, single point]
COC(=O)c1sc(N)c(C(=O)OC)c1COC(=O)CNS(=O)(=O)c1ccc(C)cc1	inactive
O=C(C(=O)N1CCN(CCN2CCOCC2)CC1)c1ccccc1	inactive
